# Laboratory results published in PubChem BioAssay AID485294 (National Center for Advancing Translational Sciences (NCATS), 2010).
# Hit rate of the full screen: of about 370,000 compounds, about 150 (0.041%) were called active. The shares of active, inactive and inconclusive entries below differ from those in the screen. Calls come from the whole dose curve; as a rule, active = well fitted inhibition curve with a large enough effect; inconclusive = small, poorly fitted or top-dose-only effect; inactive = flat fitted curve, though single readings scatter. Potencies of inconclusive entries are left out as doubtful fits.
# Target: Beta-lactamase (Escherichia coli (strain K12)) (UniProt P00811)
# Assay: qHTS Inhibitors of AmpC Beta-Lactamase (assay with detergent); note: nearly all actives have a fitted effect of over 25% in size
# Conditions: AmpC hydrolysis of nitrocefin, absorbance 480 nm, 0.01% Triton; series mostly up to 114 µM
# How it was run: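 AmpC (5.3 nM in the dispensed reagent) in 20 mM phosphate pH 7.0 with 0.01% (detergent screen) or 0.0001% Triton X-100 was preincubated with compounds for 15 min at room temperature. Nitrocefin was then added from an 800 uM solution, and hydrolysis was followed at 480 nm.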
# Potency is the fitted concentration of half-maximal effect; tags give direction and shape of the fitted curve.
# UniProt P00811, sequence (P00811 whole entry, looked up): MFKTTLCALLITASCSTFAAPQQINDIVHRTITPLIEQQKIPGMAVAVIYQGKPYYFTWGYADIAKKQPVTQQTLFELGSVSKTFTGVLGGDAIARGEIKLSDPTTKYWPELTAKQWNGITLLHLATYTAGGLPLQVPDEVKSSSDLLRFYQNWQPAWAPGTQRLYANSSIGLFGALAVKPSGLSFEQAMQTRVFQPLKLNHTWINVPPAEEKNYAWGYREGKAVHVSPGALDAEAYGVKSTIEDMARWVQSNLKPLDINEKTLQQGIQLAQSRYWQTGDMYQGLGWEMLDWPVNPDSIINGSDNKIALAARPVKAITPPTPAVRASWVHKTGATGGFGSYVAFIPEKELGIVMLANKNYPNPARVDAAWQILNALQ
row,SMILES,Potency
1,Cc1noc(C)c1CSCC(=O)Nc1cc(S(=O)(=O)N2CCCCC2)ccc1OC(C)C,"inconclusive [inhibitor, single point]"
2,CNC(=S)N/N=C/c1cn(Cc2ccc(F)cc2)c2ccccc12,"inconclusive [inhibitor, full curve, poor fit]"
3,CCOC(=O)NC(=O)c1cn(-c2ccc(OC)cc2)c(=O)[nH]c1=O,"inconclusive [inhibitor, partial curve, poor fit]"
4,Cc1ccc(/C(O)=C2/C(=O)C(=O)N(CCN3CCOCC3)C2c2cccnc2)cc1 (configuration not stated),"inconclusive [inhibitor, partial curve]"
5,CCCOc1cccc(-c2cc(C(=O)NN)c3ccccc3n2)c1,inactive
6,CC(NC(=O)c1ccc(CS(=O)(=O)c2cccc(C(F)(F)F)c2)o1)c1ccc2c(c1)OCCO2 (configuration not stated),"inconclusive [inhibitor, full curve]"
7,COc1cccc(C2CC(=O)N3CN(c4ccccc4F)CSC3=C2C#N)c1 (configuration not stated),"inconclusive [inhibitor, partial curve]"
8,CC1=C(C#N)C(NC(=O)c2ccco2)(C(F)(F)F)C(=O)N1 (configuration not stated),"inconclusive [inhibitor, partial curve, poor fit]"
9,Fc1ccc(C(c2nnnn2Cc2cccs2)N2CCN(c3ccccc3)CC2)cc1 (configuration not stated),"inconclusive [inhibitor, single point]"
10,COc1ccc(NC(=O)CN(C)C(=O)c2ccc(OCc3ccccc3)c(OC)c2)cc1,inactive
11,COc1ccc(NS(=O)(=O)c2cc(NC(=O)c3ccncc3)ccc2N2CCOCC2)cc1,inactive
12,Cc1cccc(/C=N/n2c(-c3ccncc3)n[nH]c2=S)c1,inactive
13,Cc1ccc(C)c(N(C)S(=O)(=O)c2ccc3[nH]cc(C(=O)NCCN4CCOCC4)c(=O)c3c2)c1,"inconclusive [inhibitor, partial curve]"
14,CCCCC(=O)Nc1ccc(C)c(S(=O)(=O)N2CCCCCC2)c1,"inconclusive [inhibitor, full curve, poor fit]"
15,C=CCn1c(=NC(=O)C2CC2)sc2cc(NC(C)=O)ccc21,inactive
16,O=C(c1ccccc1)c1cc2ccc(O)cc2oc1=O,inactive
17,CCC(Oc1ccccc1)C(=O)Nc1cc(-c2ccccc2F)nn1-c1ccccc1 (configuration not stated),inactive
18,C=CCNC(=O)/C(C#N)=C/c1cn(-c2ccccc2)nc1-c1ccc(OC)c([N+](=O)[O-])c1,inactive
19,O=C(c1ccc(F)cc1)N1CCN(c2cnn(-c3ccccc3)c(=O)c2Cl)CC1,"inconclusive [inhibitor, full curve, poor fit]"
20,Cc1sc2nc(SCC(=O)Nc3c(C)n(C)n(-c4ccccc4)c3=O)n(C)c(=O)c2c1C,"inconclusive [inhibitor, full curve, poor fit]"
21,Cc1c(C(=O)O)cccc1-c1ccc(C=O)o1,"inconclusive [inhibitor, partial curve, poor fit]"
22,CC(C)(C)C(C(=O)O)N1CCS(=O)(=O)CC1 (configuration not stated),"inconclusive [inhibitor, full curve, poor fit]"
23,Cc1csc(NC(=O)c2nc3nccc(C)n3n2)n1,"inconclusive [inhibitor, full curve, poor fit]"

row,SMILES,Potency
1,COc1ccc(Cc2c(O)nc(SCC(C)C)[nH]c2=O)cc1,"inconclusive [inhibitor, full curve, poor fit]"
2,CCOC(=O)c1ccc(NC(=S)NNC(=O)c2cc(-c3cccnc3)nc3ccccc23)cc1,inactive
3,COc1ccc(CC(=O)NNc2ncnc3c2cnn3-c2ccc(C)cc2)cc1OC,inactive
4,O=C(CCNS(=O)(=O)c1cccc2nsnc12)N1CCc2ccccc21,inactive
5,O=C(C1CCN(S(=O)(=O)N2CCC3(CC2)OCCO3)CC1)N1CCCCC1,"inconclusive [inhibitor, full curve, poor fit]"
6,C/C(=N\NC(=S)Nc1ccc(C)c(C)c1)c1ccc(N2CCOCC2)cc1,"inconclusive [inhibitor, full curve, poor fit]"
7,COc1ccc(C2CC(=O)c3cc(-c4nc(-c5ccc(C)cc5)cs4)c(=O)[nH]c3C2)cc1 (configuration not stated),inactive
8,Cc1cccc(OCC(O)Cn2c(=N)n(CCN3CCOCC3)c3ccccc32)c1 (configuration not stated),"inconclusive [inhibitor, full curve, poor fit]"
9,CCOC(=O)c1c(C)[nH]c(C)c1S(=O)(=O)N(C)CC(=O)NCc1ccc(C)cc1,"inconclusive [inhibitor, full curve, poor fit]"
10,CC(C)Cc1[nH]c(=O)c(C#N)c2c1COC(C)(C)C2,"inconclusive [inhibitor, full curve, poor fit]"
11,C=CCN1C(=O)N(c2ccccc2)C(=O)C1CC(=O)Nc1ccc(OC)cc1 (configuration not stated),inactive
12,CCCS(=O)(=O)N1CCCC(C(=O)Oc2ccc(Cl)cc2)C1 (configuration not stated),"inconclusive [inhibitor, full curve, poor fit]"
13,COc1ccc(CN(Cc2ccc(C(=O)O)cc2)C(=S)Nc2cccc(C)c2)cc1OC,"inconclusive [inhibitor, single point]"
14,CC(=O)c1c(C)n([O-])c2cc(C)ccc2[n+]1=O,"inconclusive [inhibitor, full curve, poor fit]"
15,COC(=O)c1nc2cc(C)ccn2c1F,"inconclusive [inhibitor, full curve, poor fit]"
16,CCCC(=O)Nc1nc(-c2ccc3c(c2)CCN3S(C)(=O)=O)cs1,"inconclusive [inhibitor, partial curve]"
17,CCOc1ccccc1NC(=O)CSc1ccc(-c2ccco2)nn1,inactive
18,COc1ccc(C2CC(=O)C3=C(C2)Nc2ccccc2NC3c2coc3ccccc3c2=O)cc1OC (configuration not stated),inactive
19,O=C(NCc1ccco1)c1ccc2c(=O)n(-c3ccccc3)c(=O)n(Cc3cccc(F)c3)c2c1,"inconclusive [inhibitor, partial curve]"
20,O=C(Nc1ccc(OCC(F)(F)C(F)F)c(C(F)(F)F)c1)c1ccccc1O,inactive
21,CCCCOc1ccc(Cl)cc1CSc1nnc(CC)n1N,"inconclusive [inhibitor, full curve]"
22,O=C(CSCc1nc2ccccc2[nH]1)N1CCN(c2cccc(Cl)c2)CC1,"inconclusive [inhibitor, partial curve, poor fit]"
23,COc1ccc2[nH]c3c4c(ccc3c2c1)C(=O)C=CC4=O,inactive

row,SMILES,Potency
1,Cc1ccccc1C(=O)N1CCC(C(=O)Nc2ccc(F)cc2)CC1,"inconclusive [inhibitor, full curve, poor fit]"
2,CCCCn1c(NCc2ccc3c(c2)OCO3)nc2ccccc21,"inconclusive [inhibitor, full curve, poor fit]"
3,Oc1ccc(N=Nc2n[nH]c(-c3ccc(Br)cc3)n2)cc1,inactive
4,COc1ccc(/C=C/C(=O)Oc2cc(C)[nH]c(=O)c2[N+](=O)[O-])cc1OC,inactive
5,CS(=O)(=O)Nc1ccc(-c2nc3ccccc3s2)cc1,inactive
6,COc1cccc(NC(=S)N(CCc2c(C)[nH]c3ccccc23)Cc2cccs2)c1,"inconclusive [inhibitor, full curve, poor fit]"
7,Cc1cccn2c(=O)c3cc(C(=O)NCC4CCCO4)c(=N)n(Cc4cccnc4)c3nc12 (configuration not stated),"inconclusive [inhibitor, full curve]"
8,Cc1ccnc(N2CCC(C(=O)Nc3ccc4c(c3)OCO4)CC2)n1,"inconclusive [inhibitor, full curve, poor fit]"
9,COc1ccc(C)cc1NC(=O)CCCN1C(=O)CCC1=O,inactive
10,CCc1ccc(/C=C/C(=O)c2c(C)cc(C)[nH]c2=O)cc1,"inconclusive [inhibitor, full curve]"
11,O=C(Nc1nnc(SCc2ccccc2F)s1)C1=COCCO1,"inconclusive [inhibitor, partial curve, poor fit]"
12,COc1cccc(C2C(C(=O)c3cc4cccc(OC)c4o3)=C(O)C(=O)N2c2cc(C)on2)c1OC (configuration not stated),"inconclusive [inhibitor, full curve]"
13,O=C(O)C(CO)(c1ccccc1)c1ccccc1,inactive
14,Cc1ccc2c(c1)N(C(=O)Nc1cccc3c1CCCC3)CCO2,inactive
15,CCN(CC(=O)Nc1ccc(NC(C)=O)cc1)C(=O)/C=C/c1cn(-c2ccccc2)nc1-c1cccs1,"inconclusive [inhibitor, full curve, poor fit]"
16,CCN(CC)CCCN=Cc1c(O)n(-c2cccc(C)c2C)c(=O)[nH]c1=O,"inconclusive [inhibitor, full curve, poor fit]"
17,CCCCNC(=O)COC(=O)c1cc(C)nc2ccccc12,"inconclusive [inhibitor, full curve, poor fit]"
18,CC(C)CC(=O)NC1(C(F)(F)F)C(=O)N(Cc2ccccc2)C2=C1C(=O)CC(C)(C)C2 (configuration not stated),"inconclusive [inhibitor, full curve, poor fit]"
19,COc1ccc(CNC(=O)c2ccc(-c3nc(CSc4ccc(C)cc4)c(C)o3)cc2)c(OC)c1,inactive
20,CC(C)(C)NC(=O)COC(=O)CCC(=O)c1ccc(F)cc1,"inconclusive [inhibitor, full curve, poor fit]"
21,COc1ccc([C@@H]2[C@@H]3C(=O)N(C(C)(C)C)C(=O)[C@@H]3[C@]3(Cc4ccccc4)C(=O)N(c4ccc(OC)cc4)C(=O)N23)cc1,"inconclusive [inhibitor, single point]"
